# Assay results: PMC4336329 (PLoS ONE, 2015)
# In all, about 310,000 compounds went through this assay and about 2,200 (0.71%) showed an effect of 50% or more. The effect is printed as a negative number. Some of the results follow.
# Target: human ether-à-go-go-related gene (hERG) potassium channel (human, UniProt Q12809)
# Assay: primary screen, population patch clamp on CHO cells stably expressing hERG
# human ether-à-go-go-related gene (hERG) potassium channel, sequence (Q12809 whole entry, looked up): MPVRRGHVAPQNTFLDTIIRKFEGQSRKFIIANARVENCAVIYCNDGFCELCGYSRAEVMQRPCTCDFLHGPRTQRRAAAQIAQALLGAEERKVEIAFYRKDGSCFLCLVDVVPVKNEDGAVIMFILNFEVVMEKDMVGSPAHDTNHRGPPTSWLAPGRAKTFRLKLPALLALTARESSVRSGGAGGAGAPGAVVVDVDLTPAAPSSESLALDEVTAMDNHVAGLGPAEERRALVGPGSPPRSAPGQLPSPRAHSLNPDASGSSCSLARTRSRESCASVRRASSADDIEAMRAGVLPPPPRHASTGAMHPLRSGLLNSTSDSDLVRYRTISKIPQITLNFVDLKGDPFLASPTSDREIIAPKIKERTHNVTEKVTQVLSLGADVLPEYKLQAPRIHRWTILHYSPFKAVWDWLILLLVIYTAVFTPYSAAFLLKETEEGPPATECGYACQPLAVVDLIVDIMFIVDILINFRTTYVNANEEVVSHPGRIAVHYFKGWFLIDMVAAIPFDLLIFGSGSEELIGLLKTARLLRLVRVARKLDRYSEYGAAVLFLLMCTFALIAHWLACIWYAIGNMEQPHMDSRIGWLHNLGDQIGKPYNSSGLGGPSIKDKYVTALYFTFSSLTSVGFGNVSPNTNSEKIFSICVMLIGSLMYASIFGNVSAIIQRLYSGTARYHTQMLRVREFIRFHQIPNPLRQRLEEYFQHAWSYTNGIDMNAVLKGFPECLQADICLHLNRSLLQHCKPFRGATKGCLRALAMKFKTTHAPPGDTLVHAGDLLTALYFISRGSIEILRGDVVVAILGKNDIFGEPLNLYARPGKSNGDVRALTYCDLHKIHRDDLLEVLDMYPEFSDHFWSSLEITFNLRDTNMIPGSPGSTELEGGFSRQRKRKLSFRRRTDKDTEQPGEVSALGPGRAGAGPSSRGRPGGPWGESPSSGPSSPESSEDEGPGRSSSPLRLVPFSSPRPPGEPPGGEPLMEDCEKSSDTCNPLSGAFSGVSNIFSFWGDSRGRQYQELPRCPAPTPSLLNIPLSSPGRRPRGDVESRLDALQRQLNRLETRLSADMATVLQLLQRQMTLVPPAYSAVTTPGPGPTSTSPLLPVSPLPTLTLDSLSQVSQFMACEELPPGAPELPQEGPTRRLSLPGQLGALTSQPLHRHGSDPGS
row,Compound,"hERG current change (%, negative = inhibition) at 1uM"
1,CCOC(=O)c1ccc(NC(=O)NC(C)C2CCCO2)cc1 (centres unmarked),-4.93%
2,CC(C)CCP(=O)(O)c1ccccc1,5.55%
3,O=C(O)CC1(CC(=O)Nc2ccccc2C(=O)c2ccccc2)CCCC1,11%
4,O=C([O-])CCSc1ccc2ccccc2n1.[Na+],17%
5,Cn1nnnc1SCc1nc2scc(-c3ccc(Cl)cc3)c2c(=O)[nH]1,-2.22%
6,O=C(Oc1ccccc1F)C1CCN(C(=O)c2ccc(F)cc2)CC1,11%
7,Cc1cc(NC(=O)CCCC(=O)N(CC(=O)NCCc2ccccc2)Cc2ccc(F)cc2)no1,-16.9%
8,O=C(CSc1nnc(C2COc3ccccc3O2)o1)N1CCCCC1 (centres unmarked),4.89%
9,CC(C)(C)c1ccc(C(=O)Cn2nc(C(=O)O)c3ccccc3c2=O)cc1,8.77%
10,Cl.NCCCCCC(=O)Nc1ccncc1,15.9%
11,O=S(=O)(c1ccc(F)c(F)c1)N1CCN(CCc2ccccc2)CC1,15.5%
12,COc1cccc(OCCOCCN(C)CCO)c1,9.94%
13,COc1ccc(CNC(=O)C/C(C)=N/NC(=O)COc2cccc(C)c2)cc1,2.27%
14,COc1cc(/C=N/NC(=O)C23CC4CC(CC(C4)C2)C3)cc(Br)c1O,2.46%
15,Cc1cc(NS(=O)(=O)c2ccc(NC(=O)Cc3ccccc3)cc2)nc(C)n1,8.3%
16,CCOC(=O)C1=C(N)OC2=C(C(=O)CC(C)(C)C2)C1c1ccccc1OC (centres unmarked),10.9%
17,CCCNS(=O)(=O)c1ccc(C(=O)NCC2CCCO2)cc1 (centres unmarked),3.04%
18,COc1cccc(NC(=O)CN(C)C(=O)c2cccc(S(=O)(=O)Nc3ccc(C)cc3)c2)c1,9.89%
19,COC(=O)c1ccc(Nc2ncnc3sccc23)cc1,8.08%
20,COC(=O)C(C)Sc1nc2c(c(=O)n1-c1ccccc1)SCC2 (centres unmarked),0.505%
21,CCOc1ccc(NC(=O)C[n+]2ccc(N(C)C)cc2)cc1.[Cl-],19.9%
22,CCOC(=O)[C@@H]1[C@H]2COc3cc(OC)ccc3[C@@H]2N2C(=O)N(c3cccc(F)c3)C(=O)[C@@]12C,13.7%
23,COc1ccc(OCCN2C(=O)c3ccccc3C2=O)cc1,6.71%

row,Compound,"hERG current change (%, negative = inhibition) at 1uM"
1,Cc1nn(-c2cccc(Cl)c2)c2c1C(c1ccncc1)C(C#N)=C(N)O2 (centres unmarked),5.94%
2,Cc1nn(-c2ccccc2)c(N)c1N=Nc1cccnc1,8.71%
3,COc1ccc(C2c3[nH]c4ccccc4c3C[C@H]3C(=O)N(C4CCN(Cc5ccccc5)CC4)CC(=O)N23)c(OC)c1 (some centres unmarked),11.4%
4,COc1ccc(NS(=O)(=O)c2cccc(C(=O)NNC(=O)c3cccc(NC(C)=O)c3)c2)cc1,15.5%
5,CCN(Cc1ccccc1)C(=O)c1c[nH]c2ccc(S(=O)(=O)N(C)CCC#N)cc2c1=O,0.553%
6,COc1ccc(NC(=O)Nc2ncn(Cc3cccc(C(F)(F)F)c3)n2)cc1OC,-7.14%
7,CC[N+](C)(CC)CCCCOc1ccc2c(c1)C(=O)c1cc(OCCCC[N+](C)(CC)CC)ccc1-2.[I-],9.73%
8,CC1CCC(NCCNC(=O)c2ccco2)CC1 (centres unmarked),6.46%
9,CC(=O)c1c(C)[nH]c(C(=O)OCC(=O)Nc2cc(C)on2)c1C,12.8%
10,Cc1nc(N2CCN(c3ccccc3)CC2)nc2c1C(=O)CC(c1ccccc1)C2 (centres unmarked),19%
11,CC1=NN(C(=O)CSCc2ccccc2)C(O)(c2ccc(F)cc2)C1 (centres unmarked),10.6%
12,Cc1cccc(-n2ncc(Cl)c(Cl)c2=O)c1,17.1%
13,CCn1ccnc1CN1CCC(CO)(CCOc2ccccc2)CC1,13.1%
14,Cc1ccccc1-c1c(C)oc2cc(O)ccc2c1=O,7.86%
15,O=C(Nc1nncs1)c1cc(S(=O)(=O)N2CCCCC2)ccc1Cl,13.3%
16,Cc1ccc(Nc2nnc(SCC(=O)NC3CCS(=O)(=O)C3)s2)c(C)c1 (centres unmarked),8.28%
17,O=C(CSc1nc(-c2ccco2)cc(C(F)(F)F)n1)N1CCN(c2cccc(Cl)c2)CC1,11.8%
18,CCc1nc(N)c(C#N)c(-c2ccc(F)cc2)c1C,4.46%
19,c1ccc(N=P(c2nc3ccccc3o2)(N2CCOCC2)N2CCOCC2)cc1,11.2%
20,Cc1cccn2cc(CCNC(=O)c3ccc(Br)o3)nc12,-0.0936%
21,O=C(COc1cc(Cl)c(Cl)cc1Cl)N1CCN(c2ccccn2)CC1,11.7%
22,O=C(Cn1cnc([N+](=O)[O-])c1)NCc1ccc(F)cc1,10.6%
23,O=C(CN1C(=O)c2ccccc2C1=O)N1CCN=C1c1ccccc1,15.7%

row,Compound,"hERG current change (%, negative = inhibition) at 1uM"
1,CCOc1ccc(NC(=O)CC2SC(N)=NC2=O)c([N+](=O)[O-])c1 (centres unmarked),15.9%
2,N#Cc1c(N2C(=O)C3C4C=CC(C4)C3C2=O)sc2c1CCC2 (centres unmarked),16.1%
3,N=Cc1c(O)n(-c2ccccc2)c(=O)n(-c2ccccc2)c1=O,7.5%
4,O=C(Nc1nc2ccccc2n1CCN1CCOCC1)c1ccc(Cl)cc1,11.5%
5,Cc1ccccc1OCC(=O)Nc1ccc(NC(=O)c2ccco2)cc1,4.57%
6,CC(=O)Nc1cccc(C(=O)NCCc2ccco2)c1,10.8%
7,Cc1cccn2c(=O)c3cc(C(=O)N4c5ccccc5CC4C)n(C)c3nc12 (centres unmarked),9.27%
8,Cc1onc(-c2ccccc2Cl)c1C(=O)Nc1cccc2cccnc12,7.37%
9,CCN1CCN(c2ccc(S(=O)(=O)N3CCCCC3)cc2N)CC1,3.74%
10,O=C(Oc1cccc([N+](=O)[O-])c1)C1CCN(C(=O)c2ccc(F)cc2)CC1,-3.31%
11,CCCN(CCC)CCCNC(=O)c1ccc(CS(=O)(=O)c2c(Cl)cccc2Cl)o1,-59.1%
12,CN(C1CCS(=O)(=O)C1)S(=O)(=O)c1ccc(C2CCCCC2)cc1 (centres unmarked),3.15%
13,COc1ccc(C(=O)N2CCOCC2)cc1Br,14.2%
14,O=C1CC(C(=O)N2CCN(Cc3ccccc3)CC2)CN1Cc1ccccc1 (centres unmarked),-10.5%
15,O=C(O)C1CCCN1C(=O)OCc1ccccc1 (centres unmarked),5.34%
16,O=C(NC1CC(=O)N(c2ccc3c(c2)OCCO3)C1)N1CCCCC1 (centres unmarked),11.7%
17,CC/C(=N/O)C(=O)c1ccc(Br)cc1,2.46%
18,CSc1ccc(CN2CCC(Oc3cccc(C(=O)N4CCCC4)c3)CC2)cc1,-36.7%
19,CC1(C)C2CCC1(CS(=O)(=O)Nc1cccc(S(N)(=O)=O)c1)C(=O)C2 (centres unmarked),8.84%
20,Cc1scc(C(=O)NNC(=S)NCc2ccccc2)c1C,5.62%
21,CCOc1ccc(NC(=S)N2CCC(N(C)CC3CCCO3)CC2)cc1 (centres unmarked),7.86%
22,CCN1CCN(CCCNC(=O)c2cc3c(=O)oc4ccc(C)cc4c3s2)CC1,8.15%
23,O=C(c1ccc(S(=O)(=O)N2CCOCC2)cc1)N1CCN(C2=NS(=O)(=O)c3ccccc32)CC1,-7.72%

row,Compound,"hERG current change (%, negative = inhibition) at 1uM"
1,Cc1ccc(S(=O)(=O)Nc2ccc(N(C)S(=O)(=O)c3ccc(C)cc3)cc2)cc1,13.9%
2,O=C(NCc1ccccc1)NC1(C(=O)N2CCN(c3ccccc3)CC2)CCCCC1,0.276%
3,O=C(O)c1c2c(nc3ccccc13)/C(=C/c1ccccc1[N+](=O)[O-])CCC2,11.2%
4,Nc1nc(OCc2ccccc2)c2[nH]cnc2n1,6.33%
5,C=CCc1ccccc1OCC(O)CN1CCN(c2ccc(C)cc2)CC1 (centres unmarked),-7.69%
6,CCOC(=O)c1cc2ccc3ccccc3c2s1.O=C(O)CCCCC(=O)O,13.6%
7,COc1ccccc1C(=O)NCCC(=O)N1CCCC(C(F)(F)F)C1 (centres unmarked),21.4%
8,Cc1nn(Cc2ccccc2)c(C)c1C(=O)OCC(=O)Nc1cccc(S(N)(=O)=O)c1,2.52%
9,O=C(Nc1cccc(S(=O)(=O)Nc2ccccc2Cl)c1)c1ccc(Cl)nc1,-0.716%
10,N#Cc1c2n(c3c(=O)n(CC(=O)c4ccc([N+](=O)[O-])cc4)cnc13)CCCCC2,1.72%
11,Cc1[nH]c2ccccc2c1SCC(=O)N1CCCc2ccccc21,16.5%
12,C=CCNC(=S)Nc1c(C(=O)OC)[nH]c2cc(OC)ccc12,15%
13,CN1CCCN(c2ccc([N+](=O)[O-])nc2)CC1,18.7%
14,COc1ccccc1NS(=O)(=O)c1cc(NC(=O)CC(C)(C)C)ccc1N1CCOCC1,6.17%
15,COc1ccc(-c2cn(CCC(=O)O)c(-c3ccc(Cl)nc3)n2)cc1,5.57%
16,OCCN(CC#CC(O)(c1ccccc1)c1ccccc1)CCO,13.3%
17,Cn1c(-c2ccc3c(c2)OCO3)cnc1N,4.58%
18,O=C(CC1CC2CCC1C2)NCCc1ccc(Cl)cc1 (centres unmarked),-0.305%
19,O=C(O)c1ccc2c(c1)C(=O)N(c1nccs1)C2=O,7.31%
20,Nc1nc(NCc2ccccc2)nc(Nc2ccc(F)cc2)c1[N+](=O)[O-],8.44%
